Measurements: the antibiotic and cytotoxicity screens of Wong et al. (2023)
Some of the results follow.

How the values were obtained:
HSkMC = human skeletal muscle cells; assay: cytotoxicity call (relative viability < 0.9); conditions: 10 µM
HepG2 = assay: cytotoxicity call (relative viability < 0.9); conditions: 10 µM
S. aureus RN4220 = assay: growth inhibition call (relative growth <= 0.2); conditions: 50 µM

Structure (SMILES)	cytotoxicity call (HSkMC)	cytotoxicity call (HepG2)	growth inhibition call (S. aureus RN4220)
C[C@H]1CN([C@@H](C)CO)C(=O)Cc2cc(NC(=O)C3CCCCC3)ccc2O[C@H]1CN(C)Cc1ccc(Cl)c(Cl)c1	inactive	inactive	inactive
CCCNC(=O)N1C[C@H](O)COC[C@@H]2O[C@@H](CC(=O)N3CCOCC3)CC[C@H]21	inactive	inactive	inactive
COc1ccc(NC(=O)N(C)C[C@H]2OCCCC[C@@H](C)Oc3ccc(NC(=O)Nc4ccc5c(c4)OCO5)cc3C(=O)N([C@@H](C)CO)C[C@H]2C)cc1	inactive	inactive	inactive
C[C@H](CO)N1C[C@H](C)[C@@H](CN(C)Cc2ccc(Oc3ccccc3)cc2)Oc2c(NC(=O)Nc3ccc4c(c3)OCO4)cccc2C1=O	inactive	inactive	inactive
O=C1[C@@H]2CCCN2C(=O)[C@@H]2CCCN12	inactive	inactive	inactive
OC[C@H]1O[C@@H](Oc2c[nH]c3ccccc23)[C@H](O)[C@@H](O)[C@@H]1O	inactive	inactive	inactive
C=CC[C@H](CC(=O)N(CCO)Cc1ccccc1)C(=O)NC[C@H](OC(=O)[C@@H](CC=C)Cc1ccc(F)cc1)c1ccccc1	active	inactive	inactive
C[C@H]1CN([C@@H](C)CO)C(=O)Cc2cc(NS(=O)(=O)c3ccc(F)cc3)ccc2O[C@@H]1CN(C)Cc1ccc(-c2ccccc2)cc1	active	inactive	inactive
C[C@@H]1CCCCO[C@H](CN(C)C(=O)Nc2ccccc2)[C@@H](C)CN([C@H](C)CO)C(=O)c2cc(NC(=O)Nc3cccc4ccccc34)ccc2O1	inactive	inactive	inactive
